Reference: PubChem BioAssay AID1508624 (National Center for Advancing Translational Sciences (NCATS), 2021)
About 120 (0.25%) of roughly 48,000 compounds were called active. Roughly 4% stayed inconclusive and do not appear here. Calls follow the shape of the dose curve; as a rule, active = well fitted activation curve with a large enough effect; inconclusive = small, poorly fitted or top-dose-only effect, or another doubt; inactive = no such curve, though single readings can be large or run the other way. The list shows a part of the results.

experiment: Primary qHTS for Identification of Small Molecule Activators of Huntingtin-Antisense Promoter Activity; conditions: HEK293 HTT-AS promoter firefly luciferase reporter, 24 h; series mostly up to 57.5 µM; activity change, positive = activation: at the top concentration; also: nearly all actives have a fitted effect of over 55% in size
Summary of the method: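 HEK293 cells carrying firefly luciferase reporters were seeded at 2,500 per well in Opti-MEM and cultured for 24 h. They were then treated with compounds at up to 57.5 uM final for 24 h at 37 degrees C before Dual-Glo luminescence readout.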

Structure (SMILES)	activity change, positive = activation
CCc1nn2c(-c3ccccc3OC)ccnc2c1-c1ccc(F)cc1	inactive: -34%
COC(=O)c1ccc(NC(=O)CCc2c(C)nc3c(c(C)nn3-c3ccc(C)cc3)c2C)cc1	inactive: -13.8%
COc1ccc(CCNc2nc(-c3ccc(C)cc3)cc(C(F)F)n2)cc1OC	inactive: -12.7%
Oc1c(C(c2ccccc2F)N2CCOCC2)sc2nc(-c3ccco3)nn12 (configuration not stated)	inactive: -7.63%
CCOC(=O)C1CCN(c2c(C(=O)c3ccc(OCC)cc3)cnc3ccc(OC)cc23)CC1	inactive: -52.8%
Cc1nc2c(C(=O)NCc3ccccc3Cl)c[nH]n2c(=O)c1Cc1cccc(Cl)c1	inactive: -31.7%
CCN(c1ccccc1)S(=O)(=O)c1ccc2[nH]cc(C(=O)NC3CCCCC3)c(=O)c2c1	inactive: -39.5%
CC(NC(=O)CSc1n[nH]c(-c2ccccc2Cl)n1)c1nc2ccccc2n1C (configuration not stated)	inactive: -18.3%
Cc1c(Cl)cccc1NC(=O)CC(c1cccs1)N1Cc2ccccc2C1=O (configuration not stated)	inactive: -34.5%
CCOc1ccc(NC(=O)CN2CCN(Cc3ccccc3)S2(=O)=O)cc1	inactive: -10.1%
Cc1cc2[nH]c(=O)c(=O)[nH]c2cc1S(=O)(=O)Nc1ccc(OC(F)(F)F)cc1	inactive: -13.3%
Cc1cccc(OC(=O)c2cc(-c3ccc4c(c3)OCCO4)on2)c1C	inactive: 22.4%
COc1cccc(CNC(=O)C(Cc2ccccc2)NS(=O)(=O)c2ccc3c(c2)oc(=O)n3C)c1 (configuration not stated)	inactive: 5.95%
COc1ccc(-c2noc(CSc3nc(N)cc(=O)[nH]3)n2)cc1	inactive: -90.7%
Cc1cccc(NC(=O)c2ccc3nc(CCc4ccccc4)oc3c2)c1C	inactive: 7.25%
CCOc1ccccc1C(=O)Nc1ccc2nc3c(c(Nc4ccc(OC)c(OC)c4)c2c1)CCCC3	inactive: -36.5%
Cc1ncc(CO)c2c1Oc1nc(-c3ccc(F)cc3)nc(SCc3ccc(F)cc3Cl)c1C2	inactive: -14.3%
Cc1cc(Nc2cccc(Cl)c2)nc2ccc(NC(=O)c3cccc(N(C)C)c3)cc12	inactive: -5.8%
CCCS(=O)(=O)N1CCC(N2CCN(Cc3ccc(F)cc3)C(=O)C2=O)CC1	inactive: -1.83%
COc1ccc(-c2noc(-c3nnn(-c4ccc(C(C)C)cc4)c3C)n2)cc1OC	inactive: -6.71%
O=C(Nc1ccccc1)c1ccc2c(O)c(S(=O)(=O)c3ccc(Cl)cc3)c(=O)[nH]c2c1	inactive: -14.5%
COc1ccccc1C(=O)Nc1onc2c1CCCC2	inactive: 0%
CCOC(=O)c1ccc(NC(=O)CN2Cc3ccccc3C2=O)cc1	inactive: 1.1%

Structure (SMILES)	activity change, positive = activation
CCOc1ccc(C(=O)c2cn(CC(=O)Nc3ccc(F)c(F)c3)c3cc4c(cc3c2=O)OCCO4)cc1	inactive: -22.1%
CSc1ncc(Cl)c(C(=O)Nc2c(C(=O)c3ccc(C)c(F)c3)oc3ccccc23)n1	inactive: 4.43%
COc1cccc(NC(=O)CCc2nc(-c3cccs3)no2)c1	inactive: -14.3%
CCOc1ccccc1NC(=O)CSC1=Nc2ccccc2C2=NC(CC(=O)NCc3ccc4c(c3)OCO4)C(=O)N12 (configuration not stated)	inactive: -16.8%
Cc1nn(CC(=O)NCCc2ccccc2)c(=O)c2c1sc1ccccc12	inactive: 15.9%
O=c1cc(-c2ccccc2)n2c(SCc3ccc(Br)cc3)nnc2[nH]1	inactive: 3.44%
CCCCSCCCNC(=O)c1c[nH]c2ccc(S(=O)(=O)Nc3cccc(OC)c3)cc2c1=O	inactive: -29.4%
Cc1cc2nc(N(Cc3cccnc3)C(=O)c3ccc(Cl)s3)sc2cc1C	inactive: -13.4%
Cc1ccc(S(=O)(=O)NCC(c2ccc(N(C)C)cc2)N2CCc3ccccc32)cc1 (configuration not stated)	inactive: -16.6%
COc1ccc(-n2ccnc(NCCc3ccc(Cl)cc3)c2=O)cc1OC	inactive: -30.7%
CC(=O)N1c2ccc(S(=O)(=O)N(C)CC(=O)N(Cc3ccccc3)C(C)C)cc2CC1C (configuration not stated)	inactive: -18.6%
CC(C)(C)c1ccc(C(=O)N2CCN(CCc3ccccn3)CC2)cc1	inactive: -9.67%
O=C(Cc1ccccc1)Nc1nnc2n1CCS2	inactive: 2.02%
CCN(Cc1ccccc1)Cc1c(O)ccc2oc(C)c(C(=O)Nc3ccccc3C)c12	inactive: -40.7%
CCC(C)NC(=O)Cn1c(=O)n(-c2ccc(C)c(C)c2)c(=O)c2c(C)c(C(=O)N(CC)CC)sc21 (configuration not stated)	inactive: -16.8%
CCOc1ccccc1C1C(C(=O)Nc2ccccc2)=C(C)Nc2c(C(=O)Nc3ccc(F)cc3)cnn21 (configuration not stated)	inactive: -19.4%
CCn1cc(C(=O)N2CCN(c3ccc(OC)cc3)CC2)c2cc(OC)c(OC)cc2c1=O	inactive: -4.77%
Cc1ccc(NC(=O)Cn2cc(C(=O)c3ccco3)c3ccccc32)cc1	inactive: -21.1%
CCOc1ccc(-c2cccc(NS(=O)(=O)c3ccccc3C(F)(F)F)c2)nn1	inactive: -15.7%
O=S(=O)(c1ccc2nc(Nc3cccc(F)c3)ccc2c1)N1CCCC1	inactive: -20.7%
Cc1ccccc1Cn1c2ccccc2c2cnn(CC(=O)N3CCC(C)CC3)c(=O)c21	inactive: -29.4%
Cc1ccc(S(=O)(=O)NCC(Nc2cccc(Cl)c2)c2ccccc2)cc1 (configuration not stated)	inactive: -56.4%
CCc1ccc(NC(=O)N2CCC(N3CCN(Cc4ccc(C)cc4)C(=O)C3=O)CC2)cc1	inactive: -0.272%

Structure (SMILES)	activity change, positive = activation
CCn1c(C(=O)N2CCCC(C(=O)N3CCN(c4ccccc4)CC3)C2)cc2sccc21 (configuration not stated)	inactive: -29.8%
COc1ccc(-c2cc3nccc(-c4cc(Cl)c(C)cc4O)n3n2)cc1	inactive: -32.6%
CCOc1cc(C(=O)NCc2nc(-c3cccc(C)c3)no2)cc(OCC)c1OCC	inactive: -12.3%
COC(=O)c1ccccc1NC(=O)c1cc(CN2CCOCC2)on1	inactive: 0.866%
CCc1cccc(C)c1Nc1c(-c2cccs2)nc2nc(C)cc(C)n12	inactive: -28.9%
O=C(CSc1nc2ccccc2nc1Cc1ccccc1F)Nc1cccc(C(F)(F)F)c1	inactive: -11%
COc1ccc(-c2onc(C)c2C)cc1S(=O)(=O)Nc1cc(Cl)ccc1C	inactive: -35.1%
CCC(=O)Nc1ccc(CC)cc1-c1nc2ccccc2n(CC(=O)Nc2ccccc2C)c1=O	inactive: -14%
Cc1ccc(NC(=O)Cn2c(=O)oc3cc(S(=O)(=O)N4CCCCC4)ccc32)c(C)c1	inactive: -45%
CCN(CC)c1ccc(NC(=O)CCS(=O)(=O)c2ccc3c(c2)oc(=O)n3C)c(C)c1	inactive: -12.7%
Cc1ccc(CNc2ncnc3onc(C)c23)cc1	inactive: -44.7%
CCCOc1ccc(C2c3c(-c4ccccc4O)n[nH]c3C(=O)N2Cc2cccnc2)cc1 (configuration not stated)	inactive: -38.6%
CC(C)OCCCn1c(=O)c2ccccc2n2c(-c3cc(Cl)ccc3O)nnc12	inactive: 9.17%
COc1cc(C(=O)Nc2ccc(-c3nc4ccccc4o3)c(O)c2)cc(OC)c1OC	inactive: -15.4%
Cc1cn2c(=O)cc(COC(=O)c3ccc(NC(=O)COc4ccc(C)c(C)c4)cc3)nc2s1	inactive: -11.3%
CCc1ccccc1NC(=O)CSc1nnc(COc2ccccc2Cl)o1	inactive: -2.94%
CCOc1ccc(-c2cc(C(=O)NCCCOC)c3c(-c4ccc(CC)cc4)[nH]nc3n2)cc1	inactive: -8.38%
COc1cc2c(cc1OC)C(COc1ccc(F)cc1)N(C(=O)Cc1ccccc1)CC2 (configuration not stated)	inactive: -19%
Cc1ccc(CN2c3ccccc3-c3nc(SCC(=O)Nc4c(C)cc(C)cc4C)ncc3S2(=O)=O)cc1	inactive: 17.4%
C=CC(=O)Nc1cc2c(Nc3ccc(F)c(Cl)c3)ncnc2cc1C#CC(C)(C)N1CCN(C)CC1	inactive: -16.1%
CCOc1ccccc1C(=O)N1CC(=O)Nc2ccc(C)cc2C1c1ccccc1 (configuration not stated)	inactive: -16.2%
COc1ccc(NC(=O)Nc2cc(-c3cn4cccnc4n3)ccc2OC)cc1	inactive: -33.3%
CCOc1ccccc1NC(=O)N1CCc2c(sc3c2CCCC3)C1c1ccccc1 (configuration not stated)	inactive: 0%

Structure (SMILES)	activity change, positive = activation
CNC1CCC(N(Cc2cccc(-c3ccncc3)c2)C(=O)c2sc3c(F)ccc(F)c3c2Cl)CC1 (configuration not stated)	inactive: -16%
Cc1nn2c(=O)cc(COc3ccc(/C=C(\C#N)C(=O)Nc4ccccc4)cc3Cl)nc2s1	inactive: -6.27%
O=C(OCc1ccccc1Cl)c1ccc(-c2nnn(Cc3ccc(F)cc3)n2)cc1	inactive: 3.17%
COc1ccc(C(=O)NCCn2cc(SCC(=O)Nc3ccc(F)cc3)c3ccccc32)cc1	inactive: -46.3%
CNC(=O)c1cc(Oc2ccc(NC(=O)Nc3ccc(Cl)c(C(F)(F)F)c3)cc2)ccn1	inactive
CCN1CCN(C(=O)N[C@@H](C(=O)N[C@@H]2C(=O)N3[C@@H]2SC(C)(C)[C@H]3C(=O)O)c2ccccc2)C(=O)C1=O	inactive: 0.686%
CCn1cc(C(=O)NCCc2ccc(Cl)cc2)c(=O)c2cc(S(=O)(=O)N3CCCCCC3)ccc21	inactive: -3.62%
Cc1nn(CCCC(=O)Nc2cccc(C(F)(F)F)c2)c(=O)c2nn(-c3ccccc3)c(C)c12	inactive: -4.63%
COc1cccc2c1C(=O)c1c(O)c3c(c(O)c1C2=O)C[C@@](O)(C(C)=O)C[C@@H]3O[C@H]1C[C@H](N)[C@H](O)[C@H](C)O1	inactive: -22.8%
COc1cc(NC(=O)Cn2cnc3sc(C)c(S(=O)(=O)N4CCC(C)CC4)c3c2=O)cc(OC)c1OC	inactive: 10.6%
Cc1ccc2c(=O)c(C(=O)c3ccccc3)cn(CC(=O)Nc3ccccc3C)c2n1	inactive: -6.33%
Cc1nc(-c2ccc(S(=O)(=O)NCc3ccc(OC(C)C)cc3)cc2)co1	inactive: -28%
O=C(COc1ccccc1F)Nc1ccc2nc(SCC(=O)N3CCCC3)sc2c1	inactive: 2.3%
CCc1ccccc1NC(=O)CN1C(=O)c2cccnc2Sc2ccccc21	inactive: 1.34%
CCn1c(=O)c2sccc2n2c(CCC(=O)Nc3ccc(OC)cc3OC)nnc12	inactive: -8.68%
Cc1ccc(Cn2c(CNC(=O)Cc3cccc([N+](=O)[O-])c3)nc3cccnc32)cc1	inactive: -20%
O=c1c2ccccc2n(Cc2c(F)cccc2Cl)c(=O)n1Cc1ccccc1	inactive: -28.7%
O=S(=O)(NCC(c1ccccc1)N1CCc2ccccc21)c1ccccc1 (configuration not stated)	inactive: -34%
CCn1c(=N)c(C(=O)NCC2CCCO2)cc2c(=O)n3cc(C)ccc3nc21 (configuration not stated)	inactive: -6.35%
CCn1c(=O)cc(OCC(=O)N2CCN(c3cccc(Cl)c3)CC2)c2ccccc21	inactive: -51.9%
COc1cc(C(=O)N2CCC(c3nc4ccccc4s3)CC2)cc(OC)c1OC	inactive: -17.5%
CCCCOc1ccc(CNC(=O)C2CCCN(c3nnc(-n4c(C)ccc4C)s3)C2)cc1 (configuration not stated)	inactive: -22.4%
Cc1ccc(S(=O)(=O)N2CCN(Cc3ccc4c(c3)OCO4)CC2)cc1	inactive: 17.9% [at 11.5 µM, percent change from vehicle, -100% = no light]
